PubChem BioAssay AID485281 (National Center for Advancing Translational Sciences (NCATS), 2010)
Screen size: about 350,000 compounds; about 260 (0.074%) were called active. The shares of active, inactive and inconclusive entries below differ from those in the screen. Calls follow the shape of the dose curve; as a rule, active = well fitted inhibition curve with a large enough effect; inconclusive = small, poorly fitted or top-dose-only effect; inactive = no such curve, though single readings can be large or run the other way. Where the call is inconclusive, the potency comes from a doubtful curve fit.

target: Ferritin light chain (Equus caballus) (UniProt P02791); assay: qHTS Assay for Identification of Novel General Anesthetics; conditions: apoferritin/1-aminoanthracene competitive binding, fluorescence; activity change, negative = displacement: at 77.5 µM (top of the series); also: nearly all actives have a fitted effect of over 20% in size
In short: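 Horse-spleen apoferritin (10 uM) in 50% saturated 1-aminoanthracene in PBS was incubated 10 min at room temperature with compound. Fluorescence (ex 380, em 535 nm) was normalized to free and bound 1-AMA, with concentration-response fitted by a four-parameter Hill equation.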
% is scaled to controls: 0 for no effect and ±100 for the full control effect; potency is read from the fitted curve at half-maximal effect; tags tell the direction and shape of the fitted curve.

UniProt P02791, sequence (P02791 whole entry, looked up): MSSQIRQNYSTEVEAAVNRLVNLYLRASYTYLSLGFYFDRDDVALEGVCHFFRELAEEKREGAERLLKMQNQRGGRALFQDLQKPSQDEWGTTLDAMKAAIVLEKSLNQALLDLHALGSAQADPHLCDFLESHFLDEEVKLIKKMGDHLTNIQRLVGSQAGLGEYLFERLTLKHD

Q: With `COc1cccc(CN2CCNC(=O)C2CC(=O)NC2CCCCCCC2)c1` (stereo not drawn) as the compound, how does the Potency read?
A: Its Potency is inconclusive: 28.2 µM [inhibitor, partial curve].

Q: For `CCN1CCN(Cc2ccc(NC(=O)c3cc(NC(=O)c4cncc(-c5cccs5)c4)cc(OC)c3)cc2C(F)(F)F)CC1`, which Potency is on record?
A: Its Potency is inconclusive: 20 µM [inhibitor, partial curve].

Q: `CCCCOc1ccc(C(=O)Nn2cnnc2)cc1` was tested. Which Potency did it give?
A: Its Potency is inconclusive: 28.2 µM [inhibitor, single point].

Q: With `COc1ccc(/C=N/N=C2/C(=O)Nc3ccccc32)cc1O` as the compound, how does the Potency read?
A: Its Potency is inconclusive: 28.2 µM [inhibitor, partial curve].

Q: For `CC1CCCC(NC(=O)c2ccc(COc3ccccc3)o2)C1C` (stereo not drawn), which Potency is on record?
A: The Potency was inconclusive: 3.55 µM [inhibitor, full curve].

Q: With `COc1ccc2c(c1)NC(c1ccc(F)cc1)=NC(c1ccc(F)cc1)=N2` as the compound, how does the Potency read?
A: The Potency was inconclusive: 56.2 µM [inhibitor, single point].

Q: How did the Potency turn out when `Cc1ccc(-n2cc3c(=O)n(C)c(=O)n(C)c3c2)cc1C` was run?
A: The Potency was inconclusive: 25.1 µM [inhibitor, single point].

Q: `O=C1c2ccccc2C(=O)N1CCCCN(C(=O)c1cc2ccccc2oc1=O)c1ccc(F)cc1F` was tested. Which Potency did it give?
A: Its Potency is inconclusive: 28.2 µM [inhibitor, partial curve].

Q: How did the “activity change, negative = displacement” value turn out when `O=C(CCCC(=O)c1ccc(F)cc1)c1ccc(F)cc1` was run?
A: Its value is inactive: -6.84%.

Q: For `COc1ccc2c(c1OC)C(=O)O[C@H]2C1c2c(cc3c(c2OC)OCO3)CCN1C` (stereo partly drawn), which “activity change, negative = displacement” value is on record?
A: The value was inactive: -2.28%.

Q: With `O=C(COC(=O)C12CC3CC(CC(C3)C1)C2)Nc1ncc(Cl)cc1Cl` as the compound, how does the Potency read?
A: Its Potency is inconclusive: 7.08 µM [inhibitor, partial curve].

Q: With `CCN(CC)C(=O)c1cc(-c2ccccc2OC)on1` as the compound, how does the Potency read?
A: Its Potency is inconclusive: 25.1 µM [inhibitor, partial curve].

Q: With `Cc1cc(/C=N/NC(=O)C(=O)NCc2ccccn2)c(C)n1-c1cccc(Br)c1` as the compound, how does the Potency read?
A: The Potency was inconclusive: 22.4 µM [inhibitor, partial curve].

Q: How did the Potency turn out when `COc1ccc(OC)c(CNC(=O)c2cc(=O)[nH]c3ccc(S(=O)(=O)N4CCCCC4C)cc23)c1` (stereo not drawn) was run?
A: The Potency was inconclusive: 31.6 µM [inhibitor, single point].

Q: Which Potency does the source give for `NC(=S)NNC(=O)C12CC3CC(CC(C3)C1)C2` here?
A: Its Potency is inconclusive: 35.5 µM [inhibitor, single point].

Q: For `O=C(c1ccc(Br)o1)N1CCCc2ccccc21`, which Potency is on record?
A: Its Potency is inconclusive: 56.2 µM [inhibitor, single point].

Q: For `CCc1ccccc1NC(=O)CSc1ncc2c(n1)-c1ccccc1N(C)S2(=O)=O`, which Potency is on record?
A: The Potency was inconclusive: 1.26 µM [inhibitor, full curve].

Q: With `CCCCSc1nnc(-c2cc3c(C(F)(F)F)nn(C)c3s2)n1C` as the compound, how does the Potency read?
A: The Potency was inconclusive: 10 µM [inhibitor, partial curve, poor fit].
